According to patent US9266952B2, “Antibodies against ROR1 and uses thereof” (KANCERA AB, priority 2010, dated 2016):
Entries after “also recorded” stand apart in the source; their conditions may differ.

Columns and labels:
[1] = system: primary patient CLL cells; test: Primary patient CLL cells i.v. in irradiated NOD.SCID mice, spleen; format: in vivo; settings: 10 mg/kg i.p. from day 5-7 after transfer, sacrificed 3-7 days later, versus isotype control
Description: Primary patient CLL cells are intravenously injected into immuno-deficient NOD. SCID mice. The CLL cells home to the spleen and there form proliferating clusters, very similar to human disease. After allowing to settle in the spleen for 5-7 days, the mice were treated with 10 mg/kg anti-ROR1 antibodies every third day and terminated after (A) 7 days, n=7 mice/group; (B) 7 days, n=9-10 mice/group; (C) 4 days, n=8 mice/group; (D) 3 days, n=5 mice/group. At termination the number of CLL cells is quantified in spleen using FACS staining of human CD45, CD19 and CD20. Each figure represents cells from individual CLL patients.
NOD.SCID mice received whole-body irradiation of 1 Gy 1 day prior to injection of primary patient cells.
PBMCs were isolated from peripheral blood of four CLL patients using the Ficoll Hypaque technique. Thereafter, 100×10^6 cells was injected i.v into irradiated NOD.SCID mice. The mice were treated i.p with 10 mg/kg of the ROR1 specific mAb 009-G03, or irrelevant negative control mAb at day 5-7 after transfer of cells to mice and sacrificed 3-7 days later. […]
Spleens were dissected out, minced, and lysed for red blood cells. The cell suspension were stained with fluorochrome conjugated mAb's recognizing human CD45, CD19 or CD20 and CLL cells were quantified as being either CD45^+CD19^+ or CD45^+CD20^+. […]

primary CLL cells = test: Primary CLL cells transferred i.p. and i.v. to NOD.SCID mice; format: in vivo; settings: 10 mg/kg i.p. day 1 and 4 after transfer
Description: PBMCs were isolated from peripheral blood of a one CLL patient using the Ficoll Hypaque technique. […] In comparison, only 1.1% were T cells.
Thereafter, 150×10^6 cells was injected i.p and i.v into NOD.SCID mice. The mice were treated i.p with 10 mg/kg of the ROR1 specific mAb 009-G03, or irrelevant negative control at day 1, and 4 after transfer. Mice were sacrificed day 7 and intra-peritoneal cells were collected using intra-peritoneal lavage of 8 ml PBS. Cells recovered from the peritoneum were stained for anti human CD45, anti CD3 (staining cells of human origin and human T cells respectively), anti CD19 and anti CD5 (staining CLL cells) (all antibodies from BD).

B1: 009-G03: ROR1 specific mAb, VH SEQ ID NO: 21, VL SEQ ID NO: 22 (FIG. 12) (antibody, listed as Mus musculus, V domains shown)
VH: EVQLLESGGGLVQPGGSLRLSCAASGFTFSDYYMSWIRQAPGKGLEWVSAISGSGGSTYYADSVKGRFTISRDNSKNTLYLQMNSLRAEDTAVYYCAKEDWEGASFDYWGQGTLVTVSS
VL: QSVLTQPPSASGTPGQRVTISCSGSSSNIGINTVNWYQQLPGTAPKLLIYDNNKRPSGVPDRFSGSKSGTSASLAISGLRSEDEADYYCATWDDSLSGWVFGGGTKLTVLG
- number of grafted CLL cells in the spleen [1]: significantly reduces the number of grafted CLL cells in the spleen
- number of CLL cells in splenic tissue (primary CLL cells; collected day 7): very strong tendency to reduced numbers
- number of CLL cells in the peritoneal fluid (primary CLL cells; collected day 7, versus isotype control): significantly reduces the number of CLL cells in the peritoneal fluid; also recorded: significantly reduces the number of grafted CLL cells
